Test results reported in the supplement of paper PMC7125110.
± gives the standard error. Variants at the floor of the assay are shown more often than the library holds them.

B1: glmS ribozyme (parent)
chain: AUAAAAGCGCCAGAACUACAGAAAUGUAGUUGACGAGGAGGAGGUUUAUCGAAUUUUCGGCGGAUGCCUCCAAA

Key:
Conditions in all cases: with glucosamine-6-phosphate
[1] = variants of: B1; test: self-cleavage kobs at 40 uM GlcN6P; higher = faster cleavage; RNA array
How it was run: (§1)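 Ribozyme variants carrying barcodes were transcribed in situ on sequenced MiSeq chips by E. coli RNA polymerase and tracked at 37 °C with a hybridised Cy3 probe. They were exposed to 40 μM to 10 mM glucosamine-6-phosphate in HEPES/KCl/Mg(OAc)2 buffer. kobs came from exponential decay fits of normalised per-tile medians, and kcat and KM from weighted Michaelis–Menten fits.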

[2] = variants of: B1; test: self-cleavage kobs at 640 uM GlcN6P; higher = faster cleavage; RNA array
How it was run: as §1

[3] = variants of: B1; test: self-cleavage kobs at 160 uM GlcN6P; higher = faster cleavage; RNA array
How it was run: as §1

[4] = variants of: B1; test: self-cleavage kobs at 2500 uM GlcN6P; higher = faster cleavage; RNA array
How it was run: as §1

[5] = variants of: B1; test: self-cleavage kobs at 10000 uM GlcN6P; higher = faster cleavage; RNA array
How it was run: as §1

Variant	self-cleavage kobs at 40 uM GlcN6P [1]	self-cleavage kobs at 640 uM GlcN6P [2]	self-cleavage kobs at 160 uM GlcN6P [3]	self-cleavage kobs at 2500 uM GlcN6P [4]	self-cleavage kobs at 10000 uM GlcN6P [5]
C10U A12U G35U	< 1e-05 s⁻¹	< 1e-05 s⁻¹	< 1e-05 s⁻¹	< 1e-05 s⁻¹	< 1e-05 s⁻¹
A12G G35U C71A	< 1e-05 s⁻¹	–	–	–	–
C10G A14G U45C	< 1e-05 s⁻¹	–	–	–	–
C10G A33U A48G	< 1e-05 s⁻¹	–	–	–	–
C10U C58A C68A	< 1e-05 s⁻¹	–	–	–	–
G13A G35U A36C	< 1e-05 s⁻¹	–	–	–	–
C11U C50G C68G	6.75e-05 ± 1.4e-05 s⁻¹	–	–	–	–
C11U G32C C34U	< 1e-05 s⁻¹	< 1e-05 s⁻¹	< 1e-05 s⁻¹	< 1e-05 s⁻¹	< 1e-05 s⁻¹
G13U G32A C50U	< 1e-05 s⁻¹	–	–	< 1e-05 s⁻¹	–
G13C C71A	< 1e-05 s⁻¹	–	–	–	–
C10G C19A	< 1e-05 s⁻¹	–	–	< 1e-05 s⁻¹	–
A12G A15G A48U	< 1e-05 s⁻¹	–	–	–	–
G13U A53G	2.14e-05 ± 9.7e-06 s⁻¹	0.00029 ± 3.4e-05 s⁻¹	8.17e-05 ± 1e-05 s⁻¹	–	–
C11A U49C C50U	< 1e-05 s⁻¹	–	–	–	–
C10G A33C G59C C70A	< 1e-05 s⁻¹	–	–	–	–
C10A G35U U47C	< 1e-05 s⁻¹	–	–	–	–
G13U U47G C67U	< 1e-05 s⁻¹	–	–	–	–
G13U U31C A33C A48C A52C U56G	< 1e-05 s⁻¹	–	–	–	–
C10U G38A	< 1e-05 s⁻¹	< 1e-05 s⁻¹	–	–	–
A12C A64G C68A	< 1e-05 s⁻¹	–	–	–	–
A12G U46A G51C	< 1e-05 s⁻¹	< 1e-05 s⁻¹	–	< 1e-05 s⁻¹	< 1e-05 s⁻¹
C11U G38U G40C	< 1e-05 s⁻¹	–	–	< 1e-05 s⁻¹	–
G13U U30A A53G	< 1e-05 s⁻¹	–	< 1e-05 s⁻¹	–	–
C11A U55A U56C	< 1e-05 s⁻¹	–	–	–	–
G13C U49G G60U C70G	< 1e-05 s⁻¹	–	–	–	–
G13U G63U	< 1e-05 s⁻¹	–	–	–	–
A12U G63U	< 1e-05 s⁻¹	< 1e-05 s⁻¹	–	< 1e-05 s⁻¹	–

Variant	self-cleavage kobs at 40 uM GlcN6P [1]	self-cleavage kobs at 640 uM GlcN6P [2]	self-cleavage kobs at 160 uM GlcN6P [3]	self-cleavage kobs at 2500 uM GlcN6P [4]	self-cleavage kobs at 10000 uM GlcN6P [5]
A12U G29A	0.00084 ± 0.00025 s⁻¹	0.00253 ± 0.00054 s⁻¹	0.000905 ± 0.0002 s⁻¹	–	–
C10G G41U C61G	< 1e-05 s⁻¹	< 1e-05 s⁻¹	–	< 1e-05 s⁻¹	–
C10A U30C	< 1e-05 s⁻¹	< 1e-05 s⁻¹	< 1e-05 s⁻¹	< 1e-05 s⁻¹	< 1e-05 s⁻¹
C11U G29U A39U A64U	< 1e-05 s⁻¹	–	–	–	–
C10G C11U G44A U55C C71G	< 1e-05 s⁻¹	< 1e-05 s⁻¹	–	< 1e-05 s⁻¹	< 1e-05 s⁻¹
G13C G66A	< 1e-05 s⁻¹	–	–	–	–
C10A C11U G40A	< 1e-05 s⁻¹	–	–	–	< 1e-05 s⁻¹
C10U G13C A39C A42U	< 1e-05 s⁻¹	< 1e-05 s⁻¹	< 1e-05 s⁻¹	< 1e-05 s⁻¹	–
A12U A53C	0.000569 ± 7.4e-05 s⁻¹	–	–	–	–
C10A G41A	< 1e-05 s⁻¹	< 1e-05 s⁻¹	< 1e-05 s⁻¹	< 1e-05 s⁻¹	< 1e-05 s⁻¹
G13U G66C	< 1e-05 s⁻¹	–	–	–	–
C10U A33C A36U A52U U65G C70A	< 1e-05 s⁻¹	–	–	–	–
A12G C68G	< 1e-05 s⁻¹	–	–	–	–
A12U G40C A52U U56C C68A	< 1e-05 s⁻¹	–	–	–	< 1e-05 s⁻¹
A12C U31A G32C C34A U47A C71U	< 1e-05 s⁻¹	–	–	–	< 1e-05 s⁻¹
A12G U31A G32U	< 1e-05 s⁻¹	–	–	–	4.08e-05 ± 1.1e-05 s⁻¹
C11U G62A	< 1e-05 s⁻¹	< 1e-05 s⁻¹	< 1e-05 s⁻¹	–	< 1e-05 s⁻¹
C10U U57A G62C	< 1e-05 s⁻¹	–	–	–	–
C10U G41C U45G	< 1e-05 s⁻¹	–	–	–	–
C10A U30C U45A	< 1e-05 s⁻¹	< 1e-05 s⁻¹	< 1e-05 s⁻¹	< 1e-05 s⁻¹	< 1e-05 s⁻¹
C10G G43U	< 1e-05 s⁻¹	< 1e-05 s⁻¹	< 1e-05 s⁻¹	< 1e-05 s⁻¹	–
C11A A14C A36G	< 1e-05 s⁻¹	< 1e-05 s⁻¹	< 1e-05 s⁻¹	< 1e-05 s⁻¹	< 1e-05 s⁻¹
C10U A12G A33U G37U	< 1e-05 s⁻¹	–	< 1e-05 s⁻¹	< 1e-05 s⁻¹	–
C11U G37C G38U	< 1e-05 s⁻¹	–	–	–	–
A12C U46G	8.74e-05 ± 1.3e-05 s⁻¹	0.000761 ± 0.00012 s⁻¹	0.000221 ± 3.6e-05 s⁻¹	0.002 ± 0.00032 s⁻¹	0.00278 ± 0.00064 s⁻¹
G13A C50A U69G	4.48e-05 ± 2.2e-05 s⁻¹	–	–	–	–
G13U G44A	< 1e-05 s⁻¹	–	< 1e-05 s⁻¹	< 1e-05 s⁻¹	–

Variant	self-cleavage kobs at 40 uM GlcN6P [1]	self-cleavage kobs at 640 uM GlcN6P [2]	self-cleavage kobs at 160 uM GlcN6P [3]	self-cleavage kobs at 2500 uM GlcN6P [4]	self-cleavage kobs at 10000 uM GlcN6P [5]
C11U U57G	< 1e-05 s⁻¹	< 1e-05 s⁻¹	–	–	–
G13C U49A	< 1e-05 s⁻¹	–	–	–	< 1e-05 s⁻¹
G13U G29U A52G C67G	6.42e-05 ± 1.9e-05 s⁻¹	–	–	–	8.86e-05 ± 1.8e-05 s⁻¹
A12C U49G A52U	< 1e-05 s⁻¹	–	–	–	–
C10G C11G G35C G37U	< 1e-05 s⁻¹	–	–	< 1e-05 s⁻¹	–
G13A G66U	< 1e-05 s⁻¹	–	–	–	–
A12G C16A U49A U54A C61U	< 1e-05 s⁻¹	< 1e-05 s⁻¹	–	–	–
C11U G38A G41A A42G	< 1e-05 s⁻¹	–	< 1e-05 s⁻¹	–	–
C11U C16U U31C U56G A64U	< 1e-05 s⁻¹	< 1e-05 s⁻¹	–	–	–
A12G A64U	< 1e-05 s⁻¹	–	< 1e-05 s⁻¹	–	–
C10U G63U	< 1e-05 s⁻¹	< 1e-05 s⁻¹	–	–	< 1e-05 s⁻¹
A12U C70A	8.79e-05 ± 1.1e-05 s⁻¹	0.00047 ± 5.2e-05 s⁻¹	0.000177 ± 2.9e-05 s⁻¹	0.00049 ± 7e-05 s⁻¹	0.00179 ± 0.00036 s⁻¹
A14C A15C	4.27e-05 ± 6.9e-06 s⁻¹	–	–	–	–
A12G U56C	< 1e-05 s⁻¹	–	–	–	–
G13C G32C U57G C70G	7.16e-05 ± 2.4e-05 s⁻¹	–	–	–	–
C10U A15C C68A	< 1e-05 s⁻¹	–	–	–	< 1e-05 s⁻¹
G13C A36C	< 1e-05 s⁻¹	–	–	–	< 1e-05 s⁻¹
A12C G62A	< 1e-05 s⁻¹	< 1e-05 s⁻¹	< 1e-05 s⁻¹	–	< 1e-05 s⁻¹
A12G C50U G59U G60A	< 1e-05 s⁻¹	–	–	–	< 1e-05 s⁻¹
C10U A14U A42U	< 1e-05 s⁻¹	–	–	–	< 1e-05 s⁻¹
C11A G35A	< 1e-05 s⁻¹	< 1e-05 s⁻¹	< 1e-05 s⁻¹	–	–
C11A G35U	< 1e-05 s⁻¹	< 1e-05 s⁻¹	–	< 1e-05 s⁻¹	< 1e-05 s⁻¹
C10A G63U	< 1e-05 s⁻¹	< 1e-05 s⁻¹	–	–	–
A12U A33U U47G U49G U55G C68U	< 1e-05 s⁻¹	–	–	–	–
C10A C11G A33C	< 1e-05 s⁻¹	–	–	–	< 1e-05 s⁻¹
C11A A42U	< 1e-05 s⁻¹	–	< 1e-05 s⁻¹	< 1e-05 s⁻¹	< 1e-05 s⁻¹
A12U C50G	4.38e-05 ± 1.4e-05 s⁻¹	–	0.000613 ± 0.00026 s⁻¹	6.46e-05 ± 2.2e-05 s⁻¹	0.000147 ± 4.2e-05 s⁻¹

Variant	self-cleavage kobs at 40 uM GlcN6P [1]	self-cleavage kobs at 640 uM GlcN6P [2]	self-cleavage kobs at 160 uM GlcN6P [3]	self-cleavage kobs at 2500 uM GlcN6P [4]	self-cleavage kobs at 10000 uM GlcN6P [5]
C11A A14U G66U C67A	< 1e-05 s⁻¹	–	–	–	–
G13C C67U	< 1e-05 s⁻¹	–	< 1e-05 s⁻¹	–	–
G13C C34G	< 1e-05 s⁻¹	< 1e-05 s⁻¹	< 1e-05 s⁻¹	< 1e-05 s⁻¹	< 1e-05 s⁻¹
C10G A42U	< 1e-05 s⁻¹	< 1e-05 s⁻¹	< 1e-05 s⁻¹	< 1e-05 s⁻¹	< 1e-05 s⁻¹
C11U A48G A53G	< 1e-05 s⁻¹	–	–	–	–
C10U C50U U54A	< 1e-05 s⁻¹	–	–	–	< 1e-05 s⁻¹
C11G A15U G26U	< 1e-05 s⁻¹	–	–	–	< 1e-05 s⁻¹
C10U A48U	< 1e-05 s⁻¹	< 1e-05 s⁻¹	< 1e-05 s⁻¹	–	< 1e-05 s⁻¹
C11U C34G A36G G40A A52U C68U	< 1e-05 s⁻¹	< 1e-05 s⁻¹	–	< 1e-05 s⁻¹	< 1e-05 s⁻¹
C11G A15U	< 1e-05 s⁻¹	–	< 1e-05 s⁻¹	< 1e-05 s⁻¹	–
A12G G43C	< 1e-05 s⁻¹	< 1e-05 s⁻¹	< 1e-05 s⁻¹	< 1e-05 s⁻¹	< 1e-05 s⁻¹
C10A A14C G44U	< 1e-05 s⁻¹	–	–	–	–
C11U C50G C58A	0.000112 ± 3.6e-05 s⁻¹	0.000189 ± 3e-05 s⁻¹	0.00015 ± 1.7e-05 s⁻¹	–	–
C10U C61G	< 1e-05 s⁻¹	< 1e-05 s⁻¹	–	–	< 1e-05 s⁻¹
C11A G62C	< 1e-05 s⁻¹	< 1e-05 s⁻¹	< 1e-05 s⁻¹	< 1e-05 s⁻¹	–
A12G U30A	< 1e-05 s⁻¹	–	–	–	–
G13C G40A	< 1e-05 s⁻¹	–	–	–	–
A12G A39U G41U A42U A52U C70U	< 1e-05 s⁻¹	–	–	–	–
A12G U57A	< 1e-05 s⁻¹	–	–	–	4.27e-05 ± 9.1e-06 s⁻¹
G13U C16A C50U	< 1e-05 s⁻¹	–	–	–	< 1e-05 s⁻¹
C11U C16G U49G	< 1e-05 s⁻¹	< 1e-05 s⁻¹	< 1e-05 s⁻¹	< 1e-05 s⁻¹	–
C10A A36G	< 1e-05 s⁻¹	< 1e-05 s⁻¹	< 1e-05 s⁻¹	< 1e-05 s⁻¹	< 1e-05 s⁻¹
G13A G29C	< 1e-05 s⁻¹	–	–	–	–
A12G C58G A64U	< 1e-05 s⁻¹	–	–	–	< 1e-05 s⁻¹
